Experimental findings from article PMC5554784 are described below.

The target in test [1] is T1, FLAG-Pat1b (full-length) (human) (UniProt Q86TB9).
T1 sequence: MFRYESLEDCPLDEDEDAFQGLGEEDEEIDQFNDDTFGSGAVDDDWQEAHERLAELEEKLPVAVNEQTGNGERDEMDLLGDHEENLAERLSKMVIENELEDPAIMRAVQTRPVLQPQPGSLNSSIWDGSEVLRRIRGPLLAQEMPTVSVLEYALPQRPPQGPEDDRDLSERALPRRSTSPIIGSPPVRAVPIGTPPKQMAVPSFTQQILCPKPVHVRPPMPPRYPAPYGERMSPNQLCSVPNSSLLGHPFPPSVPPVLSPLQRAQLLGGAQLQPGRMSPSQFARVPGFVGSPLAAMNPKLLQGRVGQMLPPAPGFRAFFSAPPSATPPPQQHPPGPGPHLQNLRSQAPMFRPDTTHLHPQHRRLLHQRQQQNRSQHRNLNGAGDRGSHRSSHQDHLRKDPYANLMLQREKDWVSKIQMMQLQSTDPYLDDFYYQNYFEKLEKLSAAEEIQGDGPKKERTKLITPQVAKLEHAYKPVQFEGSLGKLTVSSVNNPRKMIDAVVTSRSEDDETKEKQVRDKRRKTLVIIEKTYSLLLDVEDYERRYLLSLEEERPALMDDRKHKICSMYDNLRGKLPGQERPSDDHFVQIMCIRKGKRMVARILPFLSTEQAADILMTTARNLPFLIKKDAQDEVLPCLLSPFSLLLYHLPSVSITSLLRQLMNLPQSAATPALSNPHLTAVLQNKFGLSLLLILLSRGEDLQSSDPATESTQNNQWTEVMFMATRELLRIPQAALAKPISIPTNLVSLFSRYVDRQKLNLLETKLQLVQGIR
The test can be described thus: co-IP; full-length FLAG-Pat1b HEK293 lysate treated with RNase A, M2 Sepharose, western blotting.

The target of test [2] is T2, FLAG-SART3 (UniProt Q15020).
T2 sequence: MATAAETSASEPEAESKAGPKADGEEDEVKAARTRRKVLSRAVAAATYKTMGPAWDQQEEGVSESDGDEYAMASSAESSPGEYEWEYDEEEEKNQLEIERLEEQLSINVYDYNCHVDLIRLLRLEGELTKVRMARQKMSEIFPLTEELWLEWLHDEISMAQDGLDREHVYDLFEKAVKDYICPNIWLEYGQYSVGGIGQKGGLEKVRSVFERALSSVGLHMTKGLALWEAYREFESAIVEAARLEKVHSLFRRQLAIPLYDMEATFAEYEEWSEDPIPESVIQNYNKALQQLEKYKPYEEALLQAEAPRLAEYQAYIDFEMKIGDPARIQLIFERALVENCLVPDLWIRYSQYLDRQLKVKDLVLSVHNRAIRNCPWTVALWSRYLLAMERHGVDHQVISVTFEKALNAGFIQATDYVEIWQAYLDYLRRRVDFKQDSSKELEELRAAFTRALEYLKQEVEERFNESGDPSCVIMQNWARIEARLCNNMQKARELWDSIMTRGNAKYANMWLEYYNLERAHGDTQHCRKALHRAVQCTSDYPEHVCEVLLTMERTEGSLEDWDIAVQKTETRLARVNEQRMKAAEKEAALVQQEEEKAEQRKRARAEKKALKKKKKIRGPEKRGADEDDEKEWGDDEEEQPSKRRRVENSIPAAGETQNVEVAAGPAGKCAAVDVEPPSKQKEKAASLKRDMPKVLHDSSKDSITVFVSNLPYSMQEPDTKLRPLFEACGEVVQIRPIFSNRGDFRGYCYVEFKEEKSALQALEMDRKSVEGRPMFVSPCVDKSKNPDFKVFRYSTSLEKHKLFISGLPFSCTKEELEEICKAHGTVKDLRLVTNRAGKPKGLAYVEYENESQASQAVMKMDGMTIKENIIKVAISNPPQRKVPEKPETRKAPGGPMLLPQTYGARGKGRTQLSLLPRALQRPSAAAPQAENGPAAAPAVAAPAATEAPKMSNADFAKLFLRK
The test can be described thus: co-IP; FLAG-tagged proteins in lysates of transfected HEK293 cells on M2 beads, western blotting of bound proteins; in some experiments cells co-transfected with control (beta-globin), SART3 or Lsm1 siRNA. (A western blot detects proteins with antibodies after separation by electrophoresis.)

Test [3] deals with T3, FLAG-Pat1b T522E (human) (UniProt Q86TB9).
T3 sequence: T1 sequence with T522E
The test is described as above.

For test [4], the target named is T1, FLAG-Pat1b (full-length) (human). The description is as above.
For test [5], the target named is T2, FLAG-SART3. As to the kind of experiment: co-IP; FLAG-SART3 in HEK293 cells depleted of Pat1b by siRNA, FLAG immunoprecipitation, western blotting.
Test [6] concerns the target T3, FLAG-Pat1b T522E (human). The test can be described thus: co-IP; HEK293 cells transfected with FLAG-Pat1b or FLAG-GFP, lysates fractionated into nuclear and cytoplasmic pools, FLAG antibody precipitation of each (Figure S5B).
Test [7] concerns the target T1, FLAG-Pat1b (full-length) (human). The test is described as above.

Numbering of substitutions follows the chain as printed. These are yes or no findings as the source states them, for the method shown. In cells and extracts the contact can be indirect. Some entries that bind do so weakly or less than the wild type. Where a sequence is shown, tags or fusion partners need not be part of it.

B1: Lsm2 (protein, UniProt Q9Y333 1-95)
chain: MLFYSFFKSLVGKDVVVELKNDLSICGTLHSVDQYLNIKLTDISVTDPEKYPHMLSVKNCFIRGSVVRYVQLPADEVDTQLLQDAARKEALQQKQ
For the molecule B1, the binding result is recorded as “binds” in test [1]; “binds” in test [2]; “binds” in test [3]; “binds” in test [4]; “no binding (condition: cells depleted of Pat1b by siRNA)” in test [5]; “binds” in test [6]. Further, the binding entry in test [7] was “binds”.

B2: Lsm1 (protein, UniProt O15116 1-133)
chain: MNYMPGTASLIEDIDKKHLVLLRDGRTLIGFLRSIDQFANLVLHQTVERIHVGKKYGDIPRGIFVVRGENVVLLGEIDLEKESDTPLQQVSIEEILEEQRVEQQTKLEAEKLKVQALKDRGLSIPRADTLDEY
Turning to B2, the binding result in test [1], in test [3], in test [4], in test [6] and in test [7] was “binds” in each case.

B3: SART3 (endogenous) (protein, UniProt Q15020 1-963)
chain: T2 sequence
For the molecule B3, the binding result in test [3] is given as “no binding”.

B4: Lsm8 (protein, UniProt O95777 1-96)
chain: MTSALENYINRTVAVITSDGRMIVGTLKGFDQTINLILDESHERVFSSSQGVEQVVLGLYIVRGDNVAVIGEIDEETDSALDLGNIRAEPLNSVAH
Turning to B4, the binding result is “binds” in test [2], “no binding” in test [3], “binds” in test [4] and “no binding (condition: cells depleted of Pat1b by siRNA)” in test [5].
